Sequences with one replicate were seen in a single cluster, so their values are uncertain.
These sequences were tested on ATP (assay: switch fluorescence ratio, 500 uM ATP over buffer (Cy3 cluster intensity, sum of 5 cycles each) (fold (ratio)); higher = stronger signal-on switching upon ATP binding; sequences stand for … in TCGTCGGCAGCGTCAGATGTGTATAAGAGACAGTTTTTTTTTTTTTTTTTTTTTTTTT…TC). Settings: aptamer strand: ATP DNA aptamer (quencher-CACCTGGGGGAGTATTGCGGAGGAAGG + anchor), 100 nM annealed; ATP concentration: 500 uM; one replicate.
Summary of the method: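 Cy3-labelled switching-strand clusters on a modified Illumina MiSeq flow-cell were annealed to 100 nM quencher-labelled ATP aptamer, imaged in selection buffer, then imaged after 15 min with 500 uM ATP at 22 °C. Five buffer/ATP cycles ran, with NaOH stripping and re-annealing between them. The fluorescence ratio is summed target-cycle over summed buffer-cycle Cy3 intensity per cluster, averaged per switch-domain sequence. Clusters outside 100-1000 RFU were excluded.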
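Further: ATP exposure 15 min at 22 °C before imaging.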

Row | Sequence | switch fluorescence ratio
1 | TTAATGGTAA | 0.945
2 | TTAATTACAC | 1.01
3 | TTAATTACTT | 1.05
4 | TTAATTGCTA | 1.03
5 | TTAATTTCGC | 1.01
6 | TTACAACCCT | 1.16
7 | TTACAATGAA | 1
8 | TTACAGGCAG | 0.974
9 | TTACATCGAA | 0.976
10 | TTACATTCCC | 0.991
11 | TTACCATGTC | 1.09
12 | TTACCCGGGT | 1.06
13 | TTACCCGTTG | 0.977
14 | TTACCTATAC | 1.34
15 | TTACCTCTGT | 1.01
16 | TTACCTGAAG | 1.11
17 | TTACGAACGA | 0.956
18 | TTACGACTGC | 1.17
19 | TTACGAGATA | 1.31
20 | TTACGAGGTA | 1.04
21 | TTACGATGT | 0.965
22 | TTACGCGGTA | 1.13
23 | TTACGCGGTC | 1.57
24 | TTACGCTTT | 1.04
25 | TTACGGTCG | 1.01

Row | Sequence | switch fluorescence ratio
26 | TTACGTCGAC | 1.03
27 | TTACGTCTAT | 1.08
28 | TTACGTTAT | 1.21
29 | TTACTAGTGG | 0.971
30 | TTACTCGGAA | 1.22
31 | TTACTCGTAT | 1.05
32 | TTACTTAA | 1.01
33 | TTACTTACCT | 1.02
34 | TTACTTATAT | 0.988
35 | TTACTTCATC | 1.02
36 | TTACTTTACT | 1.34
37 | TTAGACAACG | 0.947
38 | TTAGACGGAA | 1.01
39 | TTAGACGTAC | 1.71
40 | TTAGAGAAGG | 1.07
41 | TTAGAGCTCT | 1
42 | TTAGAGTGAC | 1.01
43 | TTAGATAAGA | 0.979
44 | TTAGATATTG | 1.03
45 | TTAGCACACC | 1.2
46 | TTAGCCAGGC | 0.99
47 | TTAGCCTAGA | 1.02
48 | TTAGCGCGAA | 1.03
49 | TTAGCGTCT | 1.02
50 | TTAGCTGGCC | 1.01

Row | Sequence | switch fluorescence ratio
51 | TTAGGAATGA | 0.974
52 | TTAGGACGGG | 0.953
53 | TTAGGACTCA | 1.02
54 | TTAGGATAAC | 1.01
55 | TTAGGATTAG | 0.987
56 | TTAGGATTAT | 0.994
57 | TTAGGCGCC | 1
58 | TTAGGCTAGT | 1.02
59 | TTAGGCTGTA | 0.974
60 | TTAGGTTCA | 1.02
61 | TTAGGTTGG | 0.974
62 | TTAGTCACCC | 1.02
63 | TTAGTCGGTA | 0.992
64 | TTAGTTACAT | 1.07
65 | TTAGTTTGAG | 1.01
66 | TTAGTTTTC | 0.962
67 | TTATAAATGT | 0.973
68 | TTATAACAT | 0.992
69 | TTATAACATA | 1.04
70 | TTATAAGACC | 0.975
71 | TTATAAGCGG | 0.981
72 | TTATAAGCTC | 0.956
73 | TTATAATGTT | 0.996
74 | TTATACCCGG | 1.03
75 | TTATACCCGT | 1.01

Row | Sequence | switch fluorescence ratio
76 | TTATACCGGG | 1.03
77 | TTATACTTCC | 1.99
78 | TTATAGCGGA | 0.976
79 | TTATATAACA | 1.01
80 | TTATATCACA | 1.06
81 | TTATATTAC | 1.06
82 | TTATATTTTA | 0.956
83 | TTATCATGTT | 1
84 | TTATCATTGG | 0.975
85 | TTATCCATGG | 0.959
86 | TTATCCGGTA | 0.984
87 | TTATCGAAAT | 0.956
88 | TTATCGCATG | 1.36
89 | TTATCGTGCT | 0.939
90 | TTATCGTGG | 0.988
91 | TTATCTCCAC | 1.04
92 | TTATCTGAGT | 1.02
93 | TTATCTGATG | 0.993
94 | TTATCTGCAG | 1.1
95 | TTATGCGCG | 0.962
96 | TTATGGCGTC | 0.899
97 | TTATGGGGAC | 0.997
98 | TTATGGTCTT | 1.02
99 | TTATGGTTGA | 0.996
100 | TTATGTCCTT | 1.01
